PMC11291268 (2024)

B1: GFP-Ric8A [not stated] / nontagged Gαo E246K [human] (parent complex)
chain 1: MEPRAVADALETGEEDAVTEALRSFNREHSQSFTFDDAQQEDRKRLAKLLVSVLEQGLSPKHRVTWLQTIRILSRDRSCLDSFASRQSLHALACYADITVSEEPIPQSPDMDVLLESLKCLCNLVLSSPTAQMLAAEARLVVRLAERVGLYRKRSYPHEVQFFDLRLLFLLTALRTDVRQQLFQELHGVRLLTDALELTLGVAPKENPPVMLPAQETERAMEILKVLFNITFDSVKREVDEEDAALYRYLGTLLRHCVMVEAAGDRTEEFHGHTVNLLGNLPLKCLDVLLALELHEGSLEFMGVNMDVISALLAFLEKRLHQTHRLKECVAPVLNVLTECARMHRPARKFLKAQVLPPLRDVRTRPEVGDLLRNKLVRLMTHLDTDVKRVAAEFLFVLCSESVPRFIKYTGYGNAAGLLAARGLMAGGRPEGQYSEDEDTDTEEYREAKASINPVTGRVEEKPPNPMEGMTEEQKEHEAMKLVNMFDKLSRHRVIQPMGMSPRGHLTSLQDAMCETMEGQLSSDPDSDPD
chain 2: not shown
B2: GFP-Ric8A [not stated] / nontagged Gαo R209C [human] (parent complex)
chain 1: B1 chain 1
chain 2: not shown
B3: GFP-Ric8A [not stated] / nontagged Gαo G203R [human] (parent complex)
chain 1: B1 chain 1
chain 2: not shown

Variants of: B1
Test: co-IP (anti-GFP nanobody) with Western blot quantification; N2a cells; partner is nontagged Gαo E246K; n = 4–5; parent: 1; read off a plot

ratio to parent | Variant
~0.02 | chain 1 R75E
~0.33 | chain 1 K225A

Variants of: B2
Test: co-IP (anti-GFP nanobody) with Western blot quantification; N2a cells; partner is nontagged Gαo R209C; n = 4–5; parent: 1; read off a plot

ratio to parent | Variant
~0.3 | chain 1 K225A
~0.02 | chain 1 R75E

Variants of: B3
Test: co-IP (anti-GFP nanobody) with Western blot quantification; N2a cells; partner is nontagged Gαo G203R; n = 4–5; parent: 1; read off a plot

ratio to parent | Variant
~0.43 | chain 1 K225A
~0.02 | chain 1 R75E
